# ± gives the standard deviation of the averaged measurements. Laboratory Escherichia coli strains with one amino-acid change in an essential protein, pooled on minimal glucose agar with carbenicillin or gentamicin at twice the control MIC (plus kanamycin and chloramphenicol for the plasmids), 48 h. Fold change of barcode share against drug-free plates; higher = less susceptible. Active = above 20 in both replicates (the paper's putatively resistant). '<' = one read or none on drug, '>' = one read or none on a drug-free plate. Shares are relative, so most strains fall below 1 when a few take over. Listed are strains with at least 15 reads on both drug-free plates, and hits; most hits rest on fewer reference reads. Replicate rank correlation about 0.5. Edits are read from barcodes.
# B1: bioF L246A (protein)
# chain: MSWQEKINAALDARRAADALRRRYPVAQGAGRWLVADDRQYLNFSSNDYLGLSHHPQIIRAWQQGAEQFGIGSGGSGHVSGYSVVHQALEEELAEWLGYSRALLFISGFAANQAVIAAMMAKEDRIAADRLSHASLLEAASLSPSQLRRFAHNDVTHLARLLASPCPGQQMVVTEGVFSMDGDSAPLAEIQQVTQQHNGWLMVDDAHGTGVIGEQGRGSCWLQKVKPELLVVTFGKGFGVSGAAVACSSTVADYLLQFARHLIYSTSMPPAQAQALRASLAVIRSDEGDARREKLAALITRFRAGVQDLPFTLADSCSAIQPLIVGDNSRALQLAEKLRQQGCWVTAIRPPTVPAGTARLRLTLTAAHEMQDIDRLLEVLHGNG
# B2: bioF L246Q (protein)
# chain: MSWQEKINAALDARRAADALRRRYPVAQGAGRWLVADDRQYLNFSSNDYLGLSHHPQIIRAWQQGAEQFGIGSGGSGHVSGYSVVHQALEEELAEWLGYSRALLFISGFAANQAVIAAMMAKEDRIAADRLSHASLLEAASLSPSQLRRFAHNDVTHLARLLASPCPGQQMVVTEGVFSMDGDSAPLAEIQQVTQQHNGWLMVDDAHGTGVIGEQGRGSCWLQKVKPELLVVTFGKGFGVSGAAVQCSSTVADYLLQFARHLIYSTSMPPAQAQALRASLAVIRSDEGDARREKLAALITRFRAGVQDLPFTLADSCSAIQPLIVGDNSRALQLAEKLRQQGCWVTAIRPPTVPAGTARLRLTLTAAHEMQDIDRLLEVLHGNG
# B3: bioF L246W (protein)
# chain: MSWQEKINAALDARRAADALRRRYPVAQGAGRWLVADDRQYLNFSSNDYLGLSHHPQIIRAWQQGAEQFGIGSGGSGHVSGYSVVHQALEEELAEWLGYSRALLFISGFAANQAVIAAMMAKEDRIAADRLSHASLLEAASLSPSQLRRFAHNDVTHLARLLASPCPGQQMVVTEGVFSMDGDSAPLAEIQQVTQQHNGWLMVDDAHGTGVIGEQGRGSCWLQKVKPELLVVTFGKGFGVSGAAVWCSSTVADYLLQFARHLIYSTSMPPAQAQALRASLAVIRSDEGDARREKLAALITRFRAGVQDLPFTLADSCSAIQPLIVGDNSRALQLAEKLRQQGCWVTAIRPPTVPAGTARLRLTLTAAHEMQDIDRLLEVLHGNG
# B4: bioF L246P (protein)
# chain: MSWQEKINAALDARRAADALRRRYPVAQGAGRWLVADDRQYLNFSSNDYLGLSHHPQIIRAWQQGAEQFGIGSGGSGHVSGYSVVHQALEEELAEWLGYSRALLFISGFAANQAVIAAMMAKEDRIAADRLSHASLLEAASLSPSQLRRFAHNDVTHLARLLASPCPGQQMVVTEGVFSMDGDSAPLAEIQQVTQQHNGWLMVDDAHGTGVIGEQGRGSCWLQKVKPELLVVTFGKGFGVSGAAVPCSSTVADYLLQFARHLIYSTSMPPAQAQALRASLAVIRSDEGDARREKLAALITRFRAGVQDLPFTLADSCSAIQPLIVGDNSRALQLAEKLRQQGCWVTAIRPPTVPAGTARLRLTLTAAHEMQDIDRLLEVLHGNG
# B5: bioF L246D (protein)
# chain: MSWQEKINAALDARRAADALRRRYPVAQGAGRWLVADDRQYLNFSSNDYLGLSHHPQIIRAWQQGAEQFGIGSGGSGHVSGYSVVHQALEEELAEWLGYSRALLFISGFAANQAVIAAMMAKEDRIAADRLSHASLLEAASLSPSQLRRFAHNDVTHLARLLASPCPGQQMVVTEGVFSMDGDSAPLAEIQQVTQQHNGWLMVDDAHGTGVIGEQGRGSCWLQKVKPELLVVTFGKGFGVSGAAVDCSSTVADYLLQFARHLIYSTSMPPAQAQALRASLAVIRSDEGDARREKLAALITRFRAGVQDLPFTLADSCSAIQPLIVGDNSRALQLAEKLRQQGCWVTAIRPPTVPAGTARLRLTLTAAHEMQDIDRLLEVLHGNG
# B6: accA I115W (protein)
# chain: MSLNFLDFEQPIAELEAKIDSLTAVSRQDEKLDINIDEEVHRLREKSVELTRKIFADLGAWQIAQLARHPQRPYTLDYVRLAFDEFDELAGDRAYADDKAIVGGIARLDGRPVMWIGHQKGRETKEKIRRNFGMPAPEGYRKALRLMQMAERFKMPIITFIDTPGAYPGVGAEERGQSEAIARNLREMSRLGVPVVCTVIGEGGSGGALAIGVGDKVNMLQYSTYSVISPEGCASILWKSADKAPLAAEAMGIIAPRLKELKLIDSIIPEPLGGAHRNPEAMAASLKAQLLADLADLDVLSTEDLKNRRYQRLMSYGYA
# B7: rnpA F85W (protein)
# chain: MVKLAFPRELRLLTPSQFTFVFQQPQRAGTPQITILGRLNSLGHPRIGLTVAKKNVRRAHERNRIKRLTRESFRLRQHELPAMDWVVVAKKGVADLDNRALSEALEKLWRRHCRLARGS
# B8: rnpA L105D (protein)
# chain: MVKLAFPRELRLLTPSQFTFVFQQPQRAGTPQITILGRLNSLGHPRIGLTVAKKNVRRAHERNRIKRLTRESFRLRQHELPAMDFVVVAKKGVADLDNRALSEADEKLWRRHCRLARGS
# B9: rnpA V88A (protein)
# chain: MVKLAFPRELRLLTPSQFTFVFQQPQRAGTPQITILGRLNSLGHPRIGLTVAKKNVRRAHERNRIKRLTRESFRLRQHELPAMDFVVAAKKGVADLDNRALSEALEKLWRRHCRLARGS
# B10: rnpA L105W (protein)
# chain: MVKLAFPRELRLLTPSQFTFVFQQPQRAGTPQITILGRLNSLGHPRIGLTVAKKNVRRAHERNRIKRLTRESFRLRQHELPAMDFVVVAKKGVADLDNRALSEAWEKLWRRHCRLARGS
# B11: rnpA L105A (protein)
# chain: MVKLAFPRELRLLTPSQFTFVFQQPQRAGTPQITILGRLNSLGHPRIGLTVAKKNVRRAHERNRIKRLTRESFRLRQHELPAMDFVVVAKKGVADLDNRALSEAAEKLWRRHCRLARGS
# B12: rnpA V87A (protein)
# chain: MVKLAFPRELRLLTPSQFTFVFQQPQRAGTPQITILGRLNSLGHPRIGLTVAKKNVRRAHERNRIKRLTRESFRLRQHELPAMDFVAVAKKGVADLDNRALSEALEKLWRRHCRLARGS
# B13: rnpA L105Q (protein)
# chain: MVKLAFPRELRLLTPSQFTFVFQQPQRAGTPQITILGRLNSLGHPRIGLTVAKKNVRRAHERNRIKRLTRESFRLRQHELPAMDFVVVAKKGVADLDNRALSEAQEKLWRRHCRLARGS
# B14: ribF V93W (protein)
# chain: MKLIRGIHNLSQAPQEGCVLTIGNFDGVHRGHRALLQGLQEEGRKRNLPVMVMLFEPQPLELFATDKAPARLTRLREKLRYLAECGVDYVLCWRFDRRFAALTAQNFISDLLVKHLRVKFLAVGDDFRFGAGREGDFLLLQKAGMEYGFDITSTQTFCEGGVRISSTAVRQALADDNLALAESLLGHPFAISGRVVHGDELGRTIGFPTANVPLRRQVSPVKGVYAVEVLGLGEKPLPGVANIGTRPTVAGIRQQLEVHLLDVAMDLYGRHIQVVLRKKIRNEQRFASLDELKAQIARDELTAREFFGLTKPA
# B15: ribF V93D (protein)
# chain: MKLIRGIHNLSQAPQEGCVLTIGNFDGVHRGHRALLQGLQEEGRKRNLPVMVMLFEPQPLELFATDKAPARLTRLREKLRYLAECGVDYVLCDRFDRRFAALTAQNFISDLLVKHLRVKFLAVGDDFRFGAGREGDFLLLQKAGMEYGFDITSTQTFCEGGVRISSTAVRQALADDNLALAESLLGHPFAISGRVVHGDELGRTIGFPTANVPLRRQVSPVKGVYAVEVLGLGEKPLPGVANIGTRPTVAGIRQQLEVHLLDVAMDLYGRHIQVVLRKKIRNEQRFASLDELKAQIARDELTAREFFGLTKPA
# B16: ribF V93P (protein)
# chain: MKLIRGIHNLSQAPQEGCVLTIGNFDGVHRGHRALLQGLQEEGRKRNLPVMVMLFEPQPLELFATDKAPARLTRLREKLRYLAECGVDYVLCPRFDRRFAALTAQNFISDLLVKHLRVKFLAVGDDFRFGAGREGDFLLLQKAGMEYGFDITSTQTFCEGGVRISSTAVRQALADDNLALAESLLGHPFAISGRVVHGDELGRTIGFPTANVPLRRQVSPVKGVYAVEVLGLGEKPLPGVANIGTRPTVAGIRQQLEVHLLDVAMDLYGRHIQVVLRKKIRNEQRFASLDELKAQIARDELTAREFFGLTKPA
# B17: ribF V93Q (protein)
# chain: MKLIRGIHNLSQAPQEGCVLTIGNFDGVHRGHRALLQGLQEEGRKRNLPVMVMLFEPQPLELFATDKAPARLTRLREKLRYLAECGVDYVLCQRFDRRFAALTAQNFISDLLVKHLRVKFLAVGDDFRFGAGREGDFLLLQKAGMEYGFDITSTQTFCEGGVRISSTAVRQALADDNLALAESLLGHPFAISGRVVHGDELGRTIGFPTANVPLRRQVSPVKGVYAVEVLGLGEKPLPGVANIGTRPTVAGIRQQLEVHLLDVAMDLYGRHIQVVLRKKIRNEQRFASLDELKAQIARDELTAREFFGLTKPA
# Target: Escherichia coli (laboratory strain)
# Test: barcode share on antibiotic plates over drug-free plates; higher = less susceptible
# Conditions: antibiotic: carbenicillin; 2× MIC (3.1 µg/mL)
# Description: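 A pool of E. coli strains, each edited to carry one amino-acid change in an essential protein, was grown for 48 h on minimal glucose agar with or without antibiotic; strain barcodes were sequenced; mean of two replicates.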
row,Protein,fold change of barcode share
1,B1,0.398 ± 0.047
2,B2,0.38 ± 0.1
3,B3,0.401 ± 0.11
4,B4,0.376 ± 0.13
5,B5,0.414 ± 0.14
6,B6,0.3246 ± 0.0014
7,B7,0.264 ± 0.077
8,B8,0.348 ± 0.17
9,B9,0.386 ± 0.26
10,B10,0.283 ± 0.11
11,B11,0.364 ± 0.11
12,B12,0.345 ± 0.078
13,B13,0.265 ± 0.0049
14,B14,0.503 ± 0.088
15,B15,0.976 ± 0.22
16,B16,0.298 ± 0.013
17,B17,0.343 ± 0.03

# Same assay, conditions: antibiotic: gentamicin; 2× MIC (MIC 0.45 µg/mL)
row,Protein,fold change of barcode share
1,B1,0.00983 ± 0.0014
2,B2,0.00621 ± 0.0034
3,B3,0.00873 ± 0.00094
4,B4,0.00433 ± 0.0049
5,B5,0.0102 ± 0.007
6,B6,0.00816 ± 0.0052
7,B7,0.00699 ± 0.0036
8,B8,< 0.0146
9,B9,< 0.013
10,B10,0.0254 ± 0.013
11,B11,0.0422 ± 0.056
12,B12,< 0.0123
13,B13,0.0305 ± 0.013
14,B14,0.0054 ± 0.00071
15,B15,5.28 ± 6.1
16,B16,0.00315 ± 0.0011
17,B17,0.00465 ± 0.0028

# From the supplement of paper PMC11876631
